Among all 46,000 compounds or so, about 60 (0.1%) were called active. About 3% were inconclusive and are not listed. Calls follow the shape of the dose curve; as a rule, active = well fitted inhibition curve with a large enough effect; inconclusive = small, poorly fitted or top-dose-only effect; inactive = no such curve, though single readings can be large or run the other way. This is one part of the list.
Test: Primary qHTS assay for Inhibitors of ovarian cancer metastasis using an organotypic tumor microenvironment (TME) model. Also: nearly all actives have a fitted effect of over 65% in size.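 As to activity change, negative = inhibition: plate controls were DMSO wells for no effect and tomatine positive control wells for full effect.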
Details: SKOV3ip1-GFP adhesion/invasion on 3D omental model, fluorescence; series mostly up to 45.8 µM; activity change, negative = inhibition: at the top concentration
Procedure, shortened: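 A 3D layer of primary human omental fibroblasts, mesothelial cells, fibronectin and collagen I, grown 48 hr, received SKOV3ip1-GFP cells in serum-free medium plus compounds at 0.36-46 umol/L. After 2 hr RT and 16 hr 37 C, fixed adherent GFP cells were counted; normalized to DMSO and tomatine.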

Activity change, negative = inhibition, inactive:
Cc1ccc(N2CC(NC(=O)C(=O)c3c[nH]c4ccccc34)CC2=O)cc1 (stereo unspecified) -21.3%
COc1ccccc1OCC(=O)NCC1(N(C)C)CCCCC1 0.707%
CC(C)CCNC(=O)c1ccc2c(c1)N(Cc1ccccc1F)C(=O)c1ccccc1S2=O (stereo unspecified) 2.12%
CCN1CCCC1CNC(=O)c1cc(S(N)(=O)=O)ccc1OC (stereo unspecified) -12.3%
O=C(Cn1ncc2c(Cl)cccc21)NCc1cccc(Br)c1 -6.89%
N#C/C(=C\c1c(Oc2ccc(Br)cc2)nc2ccccn2c1=O)c1nc2ccccc2s1 7.41%
COC(=O)c1cccc(NC(=O)Nc2cc(C(=O)NCc3cccc(F)c3)ccc2N2CCCC2)c1 18.1%
Cc1ccc(Cc2nc3ccccc3nc2SCC(=O)N2CCCCC2C)cc1 (stereo unspecified) 29.7%
O=C(CSc1nc(=O)n(Cc2cccnc2)c2c1CCC2)Nc1ccc(F)cc1F 2.55%
COc1ccc(Cl)cc1NC(=O)c1cc(C)nn1-c1ccccc1 15.8%
CCOC(=O)c1c(NC(=O)c2cc(=O)c3ccc(C)cc3o2)sc(C)c1C 7.73%
COc1cccc(N2CCN(S(=O)(=O)c3ccc4c(c3)CCCN4C(C)=O)CC2)c1 0.184%
Cc1nn(C(C)C(=O)NC2CCC(C)CC2)c(=O)c2cc3sccc3n12 (stereo unspecified) 8.51%
CN(C)c1ccc(CNC(=O)CCCn2ccc3cc(S(=O)(=O)N4CCCC4)ccc32)cc1 -6.1%
COc1ccccc1N1CCN(C(=O)c2cn(C)c3ccc(S(=O)(=O)N4CCOCC4)cc3c2=O)CC1 -3.21%
CCCCN1CCc2nc(N3CCN(C)CC3)ncc2C1 1.67%
CC(=O)N1CCc2cc(Br)cc(S(=O)(=O)N3CCN(c4cccc(C)c4)C(C)C3)c21 (stereo unspecified) -1.09%
O=S(=O)(c1ccc(Cl)cc1)c1nnn2c1nc(N1CCCCC1)c1sccc12 -4.85%
COc1ccc(OC)c(S(=O)(=O)N2CC=C(c3c(C)n(CC(=O)N4CCCC4)c4ccccc34)CC2)c1 1.97%
Cc1cccc(NC(=O)N2CCC(CN3CCOCC3)CC2)c1C -10.5%
CC(CNC(=O)CCS(=O)(=O)c1ccc2c(c1)oc(=O)n2C)c1ccccc1 (stereo unspecified) -7.28%
Cc1ccc2c(c1)-c1c(c(C(=O)N3CCN(c4cc(Cl)ccc4C)CC3)nn1C)CS2 4.44%
Cc1cn(C)c(CC(=O)N2CCN(c3ccccc3F)CC2)c1C(=O)O 13.8%
Cc1ccccc1NC(=O)CN(c1ccc(Cl)cc1Cl)S(=O)(=O)c1ccccc1 2.82%
CCCCN(C)CCNC(=O)c1ccc2c(c1)NC(=O)CN2 1.9%
Cc1cccc(C(=O)Nc2nc(-c3nnn(-c4cc(F)ccc4F)c3C)ns2)c1 -13.2%
Cc1cccn2c(=O)c3cc(C(=O)N(Cc4ccccc4)C(C)C)sc3nc12 -7.35%
O=S(=O)(NCc1ccccc1Cl)c1ccc(N2CCCCS2(=O)=O)cc1 35%
Cc1ccc(NC(=O)C(=O)NCC(c2cccnc2)N2CCN(Cc3ccccc3)CC2)cc1 (stereo unspecified) 0.479%
CCc1ccccc1NC(=O)CSc1nc2c(oc3ccccc32)c(=O)n1-c1ccccc1F -3.09%
COc1ccc(-c2ccc3cc(C(=O)O)ccc3c2)cc1C12CC3CC(CC(C3)C1)C2 2.33%
Cc1cc(Cl)ccc1NC(=O)C1CCN(c2nnc(-n3c(C)ccc3C)s2)CC1 -0.689%
Cc1cccc(Cn2c(C)c(CNC3CCCCC3)c(C(=O)O)c2C)c1 16.7%
Cc1cc(C)c(NC(=O)CSc2nc(-c3ccc(F)cc3)nc3c2Cc2c(CO)cnc(C)c2O3)c(C)c1 -0.0887%
O=C(NCCC1=CCCCC1)c1ccc2c(c1)N(Cc1cccc(Cl)c1)C(=O)c1ccccc1S2(=O)=O -7.49%
CC(=O)c1cc2c(cc1NC(=O)c1cnn(-c3ccc(C)cc3)c1-n1cccc1)OCO2 -11.3%
O=C(Cn1ncc2c3ccccc3n(Cc3ccccc3F)c2c1=O)N1CCCCC1 0.191%
CCOc1ccc(CCNC(=O)c2[nH]c3cc(OC)ccc3c2Sc2ccccc2)cc1OCC -2.92%
CC(C)CN(CCCNC(=O)CN1N=C(c2ccccc2)CCC1=O)CC(C)C 15.3%
COc1ccccc1CNC(=O)c1ccc(N2CCCC2)c(NC(=O)NCc2ccc(F)cc2)c1 -0.445%
CCCCSCCCNC(=O)C1CCN(Cc2nc(-c3cccc(Br)c3)oc2C)CC1 0.627%
Cc1nn(-c2ccc(N3CCCC3)nn2)c(C)c1CCC(=O)NCc1ccc(OC(C)C)cc1 -4.99%
CCOc1ccc(C(=O)N2CCN(CCc3ccccn3)CC2)cc1 0.173%
CCOc1ccc(S(=O)(=O)c2cn(Cc3ccc(OC)cc3)c3ccc(F)cc3c2=O)cc1 0.555%
CCOc1ccc(NC(=O)Cn2c(=O)cc(C)c3c(C)nn(-c4cccc(Cl)c4C)c32)cc1 12.1%

outcome, inactive:
Cc1ccc(Cn2c(CCCNC(=O)C3CCCCC3)nc3ccccc32)cc1
O=C(NCCc1csc(-c2cccnc2)n1)c1ccc(F)c(F)c1
COc1ccc(N2CCN(C(=O)CS(=O)(=O)c3cccc4nsnc34)CC2)cc1
COc1ccc(-c2nc3sc(CCNC(=O)c4ccccc4C)c(C)n3n2)cc1
Cc1c(C(=O)NCCc2ccc(S(N)(=O)=O)cc2)sc2nc3n(c(=O)c12)CCCC3
CC(=O)Nc1ccc(-c2nnc(SCC(=O)c3ccc([N+](=O)[O-])cc3)o2)cc1
Cc1ccc2ccc3cc(C(=O)N4CCN(c5ccccc5)CC4)nc3c2[nH]1
CC1CCN(S(=O)(=O)c2ccc3c(c2)N(CC(=O)O)C(=O)CO3)CC1
CCOC(=O)c1ccccc1NC(=O)N1CCOc2ccc(Cl)cc21
COc1ccc(-c2cc(C(F)(F)F)n3nc(C(=O)NCC45CC6CC(CC(C6)C4)C5)cc3n2)cc1OC
COc1ccc(S(=O)(=O)N(CC(=O)Nc2cccc(C)c2)c2ccc(C)cc2)cc1OC
COc1ccc(N2CCN(c3ccc(-c4nc(-c5cccc(C)c5)no4)cc3[N+](=O)[O-])CC2)cc1
CCOC(=O)C1=C(CN(CC)Cc2ccccc2)NC(=O)NC1c1ccc(OC(C)C)cc1 (stereo unspecified)
CCOC(=O)CC(NC(=O)CCc1c(C)nc2ncnn2c1C)c1ccc(OC(C)C)cc1 (stereo unspecified)
CC(C)c1ccc(NC(=O)CCNS(=O)(=O)c2ccc3c(c2)CCCC(=O)N3)cc1
Cn1c(=O)[nH]c(=O)c2c1nc1n2CCN1c1ccccc1

Reference: PubChem BioAssay AID1963576 (National Center for Advancing Translational Sciences (NCATS), 2024)
